From the supplement of paper PMC6609913
Where a name gives a salt, the structure may show the parent alone. ± gives the standard deviation of the averaged measurements. The full ranking holds about 1,300 compounds; the median of “normalised cell viability” is about 1, and the lowest 2% start at about 0.14. The list shows a part of the results.

Tested on: V-C8 (BRCA2-deficient hamster cells)
Test: normalised cell viability (fraction of plate median); higher = more viable cells (less toxic)
Settings: 5 µM
Outline: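 Cell viability was measured with a resazurin assay, normalised to the plate median (modified robust per cent of sample) and averaged over triplicate wells. Hamster V-C8 cells lacking BRCA2 and V-C8 cells with BRCA2 restored were seeded in 96-well plates. After 24 h, library drugs from 10 mM DMSO stocks were added at a final 5 μM in 100 μl medium and left for 3 days (screen 1) or 6 days (screen 2), with solvent-only wells alongside.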

SMILES	normalised cell viability (treatment time: 3 days)	normalised cell viability (treatment time: 6 days)
N=C(N)NS(=O)(=O)c1ccc(N)cc1 [Sulfaguanidine]	1.2 ± 0.28	0.984 ± 0.012
CC(=O)Oc1ccccc1C(=O)O [Acetylsalicylic acid]	1.03 ± 0.043	0.986 ± 0.093
NC(=O)c1cc[n+](CC2=C(C(=O)[O-])N3C(=O)[C@@H](NC(=O)[C@@H](c4ccccc4)S(=O)(=O)O)[C@H]3SC2)cc1 [Cefsulodin sodium salt]	0.996 ± 0.048	0.979 ± 0.072
CC1=C(/C=C/C(C)=C/C=C/C(C)=C/C(=O)O)C(C)(C)CCC1 [Retinoic acid]	1.03 ± 0.036	0.985 ± 0.044
CCC1(c2ccccc2)NC(=O)N(C)C1=O (centres undefined) [Mephenytoin]	1.09 ± 0.041	1.17 ± 0.38
CCc1c(C)[nH]c2c1C(=O)C(CN1CCOCC1)CC2 (centres undefined) [Molindone hydrochloride]	1.09 ± 0.1	1.08 ± 0.087
Cc1ncc(CO)c(CO)c1O [Pyridoxine hydrochloride]	1.09 ± 0.016	1.12 ± 0.017
Cc1cc(C(C)(C)C)c(O)c(C)c1CC1=NCCN1 [Oxymetazoline hydrochloride]	0.96 ± 0.02	1.01 ± 0.068
CN(C)CCCN1c2ccccc2Sc2ccccc21 [Promazine hydrochloride]	0.989 ± 0.078	0.91 ± 0.061
NS(=O)(=O)c1cc(C(=O)O)cc(N2CCCC2)c1Oc1ccccc1 [Piretanide]	0.93 ± 0.097	1.06 ± 0.15
CC(C)(C(=O)O)c1ccc(C(O)CCCN2CCC(C(O)(c3ccccc3)c3ccccc3)CC2)cc1 (centres undefined) [Fexofenadine HCl]	1.09 ± 0.02	1.04 ± 0.046
COc1ccc([C@@H]2CC(=O)c3c(O)cc(O[C@@H]4O[C@H](CO[C@@H]5O[C@@H](C)[C@H](O)[C@@H](O)[C@H]5O)[C@@H](O)[C@H](O)[C@H]4O)cc3O2)cc1O [Hesperidin]	1.05 ± 0.13	1.13 ± 0.053
COC(c1ccccc1)(c1ccccc1)[C@H](Oc1nc(C)cc(C)n1)C(=O)O [Ambrisentan]	1.04 ± 0.029	1.04 ± 0.033
Cc1c(C)c2c(c(C)c1O)CCC(C)(COc1ccc(CC3SC(=O)NC3=O)cc1)O2 (centres undefined) [Troglitazone]	0.68 ± 0.04	0.588 ± 0.04
CC(C(=O)O)c1ccc2c(c1)Cc1cccnc1O2 (centres undefined) [Pranoprofen]	1.11 ± 0.043	1.05 ± 0.046
CSc1ccc2c(c1)C(N1CCN(C)CC1)Cc1ccccc1S2 (centres undefined) [Methiothepin maleate]	0.293 ± 0.035	0.401 ± 0.028
COC(=O)Nc1nc2cc(C(=O)c3ccccc3)ccc2[nH]1 [Mebendazole]	0.164 ± 0.0056	0.13 ± 0.0086
CC(C)c1ccc2oc3nc(N)c(C(=O)O)cc3c(=O)c2c1 [Amlexanox]	0.933 ± 0.034	1.03 ± 0.089
CC1(C)S[C@@H]2[C@H](NC(=O)[C@H](NC(=O)N3CCNC3=O)c3ccccc3)C(=O)N2[C@H]1C(=O)O [Azlocillin sodium salt]	1.01 ± 0.015	0.988 ± 0.092
Clc1cnccn1 [2-Chloropyrazine]	1.03 ± 0.019	1.02 ± 0.016
NCCNCCNCCNCCN [Tetraethylenepentamine pentahydrochloride]	0.975 ± 0.061	0.874 ± 0.032

SMILES	normalised cell viability (treatment time: 3 days)	normalised cell viability (treatment time: 6 days)
Cc1cc2c(cc1S(N)(=O)=O)S(=O)(=O)CCC2 [Meticrane]	1.01 ± 0.021	1.03 ± 0.017
CN(C)/N=N/c1[nH]cnc1C(N)=O [Dacarbazine]	0.948 ± 0.055	0.964 ± 0.012
CC[N+](C)(C)Cc1ccccc1Br [Bretylium tosylate]	1.01 ± 0.025	1.04 ± 0.058
C[N+](C)(C)CCCCCC[N+](C)(C)C [Hexamethonium dibromide dihydrate]	1.07 ± 0.06	1.05 ± 0.046
CN1C(C)(C)CCCC1(C)C [Pempidine tartrate]	0.993 ± 0.026	1.048 ± 0.004
Cc1onc(-c2c(Cl)cccc2Cl)c1C(=O)N[C@@H]1C(=O)N2[C@@H]1SC(C)(C)[C@@H]2C(=O)O [Dicloxacillin sodium salt hydrate]	1.03 ± 0.012	1.02 ± 0.031
CCOC(=O)[C@H](CCc1ccccc1)N[C@@H](C)C(=O)N1Cc2ccccc2C[C@H]1C(=O)O [Quinapril HCl]	1.02 ± 0.022	0.97 ± 0.018
CC(CCc1ccccc1)NCC(O)c1ccc(O)c(C(N)=O)c1 (centres undefined) [Labetalol hydrochloride]	1.06 ± 0.068	0.998 ± 0.06
O=C(O)c1cccnc1Nc1cccc(C(F)(F)F)c1 [Niflumic acid]	1.07 ± 0.032	1.03 ± 0.039
COc1ccc(C(Cl)=C(c2ccc(OC)cc2)c2ccc(OC)cc2)cc1 [Chlorotrianisene]	1.06 ± 0.064	0.996 ± 0.11
Cc1oncc1C(=O)Nc1ccc(C(F)(F)F)cc1 [Leflunomide]	0.904 ± 0.065	0.959 ± 0.043
Fc1ccc(C(c2ccc(F)cc2)N2CCN(C/C=C/c3ccccc3)CC2)cc1 [Flunarizine dihydrochloride]	0.841 ± 0.1	0.934 ± 0.049
N=C(N)c1ccc(OCCCCCOc2ccc(C(=N)N)cc2)cc1 [Pentamidine isethionate]	0.596 ± 0.07	0.597 ± 0.085
CCCCC(=O)O[C@H]1CC[C@H]2[C@@H]3CCc4cc(O)ccc4[C@H]3CC[C@]12C [Estradiol Valerate]	0.984 ± 0.019	1.01 ± 0.16
COc1cccc2c1C(=O)c1c(O)c3c(c(O)c1C2=O)C[C@@](O)(C(=O)CO)C[C@@H]3O[C@H]1C[C@H](N)[C@H](O)[C@H](C)O1 [Doxorubicin hydrochloride]	0.127 ± 0.0054	0.113 ± 0.0072
CCC(=O)O[C@@H](O[P@](=O)(CCCCc1ccccc1)CC(=O)N1C[C@H](C2CCCCC2)C[C@H]1C(=O)O)C(C)C [Fosinopril]	1.15 ± 0.043	1.03 ± 0.16
CC1(C)S[C@@H]2[C@H](NC(=O)[C@H](N)c3ccc(O)cc3)C(=O)N2[C@H]1C(=O)O [Amoxicillin]	1.25 ± 0.057	1.12 ± 0.16
OCCOCCN1CCN(C2=Nc3ccccc3Sc3ccccc32)CC1 [Quetiapine]	1.1 ± 0.02	1.135 ± 0.0073
Nc1nc(Cl)nc2c1ncn2[C@H]1C[C@H](O)[C@@H](CO)O1 [Cladribine]	0.245 ± 0.034	0.235 ± 0.0041
CN[C@@H]1[C@H](O[C@H]2[C@H](O[C@H]3[C@H](O)[C@@H](O)[C@H](N=C(N)N)[C@@H](O)[C@@H]3N=C(N)N)O[C@@H](C)[C@]2(O)C=O)O[C@@H](CO)[C@H](O)[C@H]1O [Streptomycin sulfate]	0.985 ± 0.062	1.1 ± 0.06
C[C@]12CCC(=O)C=C1CC[C@@H]1[C@@H]2[C@@H](O)C[C@@]2(C)[C@H]1CC[C@]2(O)C(=O)CO [Hydrocortisone base]	1.04 ± 0.045	0.989 ± 0.016
